The other results are listed elsewhere or left out.
Key:
Assay in all cases: glycan array binding signal (z-score within array); higher = stronger binding
Settings in all cases: glycan notation: IUPAC condensed, linker removed; mutation: E227A
[1] = molecular target: Neu5Ac(a2-3)Gal(b1-3)GlcNAc(b1-6)GalNAc
Summary of the method: (§1)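 The binding signal is a Z-score computed within each array. Data were drawn from 3228 arrays in the Consortium for Functional Glycomics database, restricted to those with a known protein sequence. Scores were averaged over arrays of the same protein sequence at different concentrations or buffers, and over linkers, and negative values can be taken as non-binding.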

[2] = molecular target: Neu5Ac(a2-3)Gal(b1-3)GlcNAc6S
Summary of the method: as §1

[3] = molecular target: Neu5Ac(a2-3)Gal(b1-3)[Fuc(a1-4)]GlcNAc
Summary of the method: as §1

[4] = molecular target: Neu5Ac(a2-3)Gal(b1-3)[Fuc(a1-4)]GlcNAc(b1-3)Gal(b1-3)[Fuc(a1-4)]GlcNAc
Summary of the method: as §1

[5] = molecular target: Neu5Ac(a2-3)Gal(b1-3)[Fuc(a1-4)]GlcNAc(b1-3)Gal(b1-4)[Fuc(a1-3)]GlcNAc
Summary of the method: as §1

[6] = molecular target: Neu5Ac(a2-3)Gal(b1-3)[GlcNAc(b1-6)]GalNAc
Summary of the method: as §1

[7] = molecular target: Neu5Ac(a2-3)Gal(b1-3)[Neu5Ac(a2-6)]GalNAc
Summary of the method: as §1

[8] = molecular target: Neu5Ac(a2-3)Gal(b1-3)[Neu5Ac(a2-6)]GlcNAc(b1-3)[Fuc(a1-3)[Gal(b1-4)]GlcNAc(b1-6)]Gal(b1-4)Glc
Summary of the method: as §1

[9] = molecular target: Neu5Ac(a2-3)Gal(b1-3)]Neu5Ac(a2-3)Gal(b1-4)]GlcNAc
Summary of the method: as §1

[10] = molecular target: Neu5Ac(a2-3)Gal(b1-4)Glc
Summary of the method: as §1

[11] = molecular target: Neu5Ac(a2-3)Gal(b1-4)GlcNAc
Summary of the method: as §1

[12] = molecular target: Neu5Ac(a2-3)Gal(b1-4)GlcNAc(b1-2)Man
Summary of the method: as §1

[13] = molecular target: Neu5Ac(a2-3)Gal(b1-4)GlcNAc(b1-2)Man(a1-3)[GlcNAc(b1-4)][Neu5Ac(a2-3)Gal(b1-4)GlcNAc(b1-2)Man(a1-6)]Man(b1-4)GlcNAc(b1-4)GlcNAc
Summary of the method: as §1

[14] = molecular target: Neu5Ac(a2-3)Gal(b1-4)GlcNAc(b1-2)Man(a1-3)[Neu5Ac(a2-3)Gal(b1-4)GlcNAc(b1-2)Man(a1-6)]Man(b1-4)GlcNAc(b1-4)GlcNAc
Summary of the method: as §1

[15] = molecular target: Neu5Ac(a2-3)Gal(b1-4)GlcNAc(b1-2)Man(a1-3)[Neu5Ac(a2-3)Gal(b1-4)GlcNAc(b1-2)Man(a1-6)]Man(b1-4)GlcNAc(b1-4)[Fuc(a1-6)]GlcNAc
Summary of the method: as §1

[16] = molecular target: Neu5Ac(a2-3)Gal(b1-4)GlcNAc(b1-2)Man(a1-3)[Neu5Ac(a2-6)Gal(b1-4)GlcNAc(b1-2)Man(a1-6)]Man(b1-4)GlcNAc(b1-4)GlcNAc
Summary of the method: as §1

[17] = molecular target: Neu5Ac(a2-3)Gal(b1-4)GlcNAc(b1-2)[Neu5Ac(a2-3)Gal(b1-4)GlcNAc(b1-4)]Man(a1-3)[GlcNAc(b1-4)][Neu5Ac(a2-3)Gal(b1-4)GlcNAc(b1-2)[Neu5Ac(a2-3)Gal(b1-4)GlcNAc(b1-6)]Man(a1-6)]Man(b1-4)GlcNAc(b1-4)GlcNAc
Summary of the method: as §1

[18] = molecular target: Neu5Ac(a2-3)Gal(b1-4)GlcNAc(b1-2)[Neu5Ac(a2-3)Gal(b1-4)GlcNAc(b1-4)]Man(a1-3)[GlcNAc(b1-4)][Neu5Ac(a2-3)Gal(b1-4)GlcNAc(b1-4)Man(a1-6)]Man(b1-4)GlcNAc(b1-4)GlcNAc
Summary of the method: as §1

[19] = molecular target: Neu5Ac(a2-3)Gal(b1-4)GlcNAc(b1-2)[Neu5Ac(a2-3)Gal(b1-4)GlcNAc(b1-6)]Man(a1-6)[Neu5Ac(a2-3)Gal(b1-4)GlcNAc(b1-2)Man(a1-3)][GlcNAc(b1-4)]Man(b1-4)GlcNAc(b1-4)GlcNAc
Summary of the method: as §1

[20] = molecular target: Neu5Ac(a2-3)Gal(b1-4)GlcNAc(b1-3)Gal
Summary of the method: as §1

[21] = molecular target: Neu5Ac(a2-3)Gal(b1-4)GlcNAc(b1-3)Gal(b1-3)GlcNAc
Summary of the method: as §1

[22] = molecular target: Neu5Ac(a2-3)Gal(b1-4)GlcNAc(b1-3)Gal(b1-4)GlcNAc
Summary of the method: as §1

[23] = molecular target: Neu5Ac(a2-3)Gal(b1-4)GlcNAc(b1-3)Gal(b1-4)GlcNAc(b1-2)Man(a1-3)[Neu5Ac(a2-3)Gal(b1-4)GlcNAc(b1-3)Gal(b1-4)GlcNAc(b1-2)Man(a1-6)]Man(b1-4)GlcNAc(b1-4)GlcNAc
Summary of the method: as §1

[24] = molecular target: Neu5Ac(a2-3)Gal(b1-4)GlcNAc(b1-3)Gal(b1-4)GlcNAc(b1-3)Gal(b1-4)GlcNAc
Summary of the method: as §1

[25] = molecular target: Neu5Ac(a2-3)Gal(b1-4)GlcNAc(b1-3)Gal(b1-4)GlcNAc(b1-3)Gal(b1-4)GlcNAc(b1-2)Man(a1-3)[Neu5Ac(a2-3)Gal(b1-4)GlcNAc(b1-3)Gal(b1-4)GlcNAc(b1-3)Gal(b1-4)GlcNAc(b1-2)Man(a1-6)]GalNAc
Summary of the method: as §1

[26] = molecular target: Neu5Ac(a2-3)Gal(b1-4)GlcNAc(b1-3)Gal(b1-4)GlcNAc(b1-3)GalNAc
Summary of the method: as §1

[27] = molecular target: Neu5Ac(a2-3)Gal(b1-4)GlcNAc(b1-3)Gal(b1-4)GlcNAc(b1-3)[Neu5Ac(a2-3)Gal(b1-4)GlcNAc(b1-3)Gal(b1-4)GlcNAc(b1-6)]GalNAc
Summary of the method: as §1

[28] = molecular target: Neu5Ac(a2-3)Gal(b1-4)GlcNAc(b1-3)Gal(b1-4)GlcNAc(b1-6)[Gal(b1-3)]GalNAc
Summary of the method: as §1

[29] = molecular target: Neu5Ac(a2-3)Gal(b1-4)GlcNAc(b1-3)Gal(b1-4)[Fuc(a1-3)]GlcNAc
Summary of the method: as §1

[30] = molecular target: Neu5Ac(a2-3)Gal(b1-4)GlcNAc(b1-3)GalNAc
Summary of the method: as §1

B1: Epa1-NP-mutant-E227A (Candida glabrata), Q6VBJ0 (protein)
chain: MILNPALFLNKCVCIYTTLILLLLTNGGYATSSNDISLASKDPTTFPLGCSPDITTPKKGLSMELYSYDFRKKGSYPCWDAAYLDPNYPRTGYKSHRLLAKVDGVTGNINFYYHATKGCTPQLGHLPASYNYPKPLTMTNFTMLLYGYFRPKVTGFHTFTISADDLLFVNFGAGNAFDCCRRDSSADHFGNYQAYAIWGSKTAKDELTVHLDAGVYYPIRLFYNNRAYDGALSFTFKTESNENTVSDFSEYFFSLDDTEEGCPGLISYDSSCASVKTSKIIGIDYHTETPNENLVPITKTIYHLGIPCTGTTTTPLCGSGFYDPLANKCVTINTSSTSSVTKTTSHTTSKEVSFHSSISSQKTLIPKSIPSPYGPIKSQSIPTEMETSSEISSSEYAFSDVISTPSHSPYTKKHSSLNSSSYTSTVIHSLTSYSISQGIFSTSLSEQNITSKSSTDKFSTATSMSNNITQSSIIISQFSTNNENYTTTSMHTSSDKISTETLNNSISTTTSILFSNSSTILKNNTTIISSDKDTHYHPVNPTIVCSTNKTEIICASITQPSISNSNNHWSSSVLKFNSTTVRSTLPSSAGSNETSINVPFSSSTESNTSTSSTSTSNSKMVRSTLPSSAGSNETSISVPFSSSTESNTSTSSTSTSNSKMVRSTLPSSAGSNETSINVPFSSSTESNTSTSSTSTSNSKTVRSTPFSSAGIIMTSLSQRNNKSASSYASSNSKCYNTADSCRKVHSTPSYLLTSSYTSEGVDYDCSLVSTKLKINDTNCVNNKHTTKSCLKTSVTTTIPTLEIKTARKSSSNTIGLHSYPTSSPNKSISSAPIIGYISSFKTIKTASPSYQTSDLTTITTITSLNNPGSTAVENTHESNDKSRKTSSNDISSKHSVIKETKDAVESSNKSHQTNTLKCSSIIIASSSHNSYESLGGTTLTLTLSKVYSPQNNDTLPFLEISEVNPSRTVLPESSKMMQYLTSTEERNKTARNTIATNIVSISTFHFEGEGNAIRMGYTQLLLMLIGIIVMNIGT
With B1 the “glycan array binding signal (z-score)” value [1] was -0.135, the “glycan array binding signal (z-score)” value [2] was -0.197 and the “glycan array binding signal (z-score)” value [3] was -0.197. For the same binder, the “glycan array binding signal (z-score)” value [4] was -0.156, the “glycan array binding signal (z-score)” value [5] was -0.177 and the “glycan array binding signal (z-score)” value [6] was -0.2. The “glycan array binding signal (z-score)” value [7] was -0.203, the “glycan array binding signal (z-score)” value [8] was -0.17 and the “glycan array binding signal (z-score)” value [9] was -0.213. The “glycan array binding signal (z-score)” value [10] was -0.202, the “glycan array binding signal (z-score)” value [11] was -0.192 and the “glycan array binding signal (z-score)” value [12] was -0.153. For the same binder, the “glycan array binding signal (z-score)” value [13] was -0.161, the “glycan array binding signal (z-score)” value [14] was -0.217 and the “glycan array binding signal (z-score)” value [15] was -0.187. For the same binder, the “glycan array binding signal (z-score)” value [16] was -0.195, the “glycan array binding signal (z-score)” value [17] was -0.194 and the “glycan array binding signal (z-score)” value [18] was -0.2. The “glycan array binding signal (z-score)” value [19] was -0.171, the “glycan array binding signal (z-score)” value [20] was -0.202 and the “glycan array binding signal (z-score)” value [21] was -0.198. The “glycan array binding signal (z-score)” value [22] was -0.214, the “glycan array binding signal (z-score)” value [23] was -0.188 and the “glycan array binding signal (z-score)” value [24] was -0.202. For the same binder, the “glycan array binding signal (z-score)” value [25] was -0.144, the “glycan array binding signal (z-score)” value [26] was -0.19 and the “glycan array binding signal (z-score)” value [27] was -0.195. For the same binder, the “glycan array binding signal (z-score)” value [28] was 0.341, the “glycan array binding signal (z-score)” value [29] was -0.977 and the “glycan array binding signal (z-score)” value [30] was -0.184.

From the supplement of paper PMC8728848
